Some of the results follow.
B1: chr4:107938606:107938607:-_ENSMUSG00000034636_ENSMUST00000043616|mus_hu|motif|central (ssRNA)
RNA: GGGAGUUCUACAGUCCGACGAUCAACAUCCAGAGAAACAAGGUUAGGUAGGAUGUCUUUUUGUUCUAGUAAGCGAAGAGCGGUGUCUGAUGUAAACUGUUUAUCAUCUGAGAUAUCAAGAUGAUUCAGAUGUUUGAGUUCCCGCAACAGAGGAUUGAGCAUCA
B2: chr2:217001844:217001845:+_ENSG00000079246_ENST00000392132|hu_hu|hu_hu_hu_mus_False|38_78 (ssRNA)
RNA: GGGAGUUCUACAGUCCGACGAUCACCAACUUGAGGAUUAGAUCUUUUGUCAUAAGCAUAUCGAACUAUGGCGACCAUGUUUAACUCAUCCAAAGCAUGAAUCAGGGAGGAAAGGGCAACAGCUGCCGCCUCAUCAUCCUUUGCCAACAGAGGAUUGAGCAUCA
B3: chr5:64648305:64648306:+_ENSMUSG00000029174_ENSMUST00000119756|mus_mus|motif|central (ssRNA)
RNA: GGGAGUUCUACAGUCCGACGAUCGGGCUGAACCACAUUGUGCCCACCGAUGAGGUGGUUCUCUAUGUCAUUGUCAAAGGAGCGGAAGGUGCUACUGCGGAGGCUAGCGUCCUGGAACUCCUUCCUGAAGGCCAGCGAGCGCAGCAACAGAGGAUUGAGCAUCA
B4: chr10:28884852:28884853:+_ENSG00000095787_ENST00000354911|hu_mus|motif|central (ssRNA)
RNA: GGGAGUUCUACAGUCCGACGAUCAGAUGCUCCAUUAGCAUCAAAUGAUUUCUUUGGCUGGUGAUCAGACUGAAGCGUAAAUGGACGGGAAGGAACAGUGCUUGGGGUAGCGGUUGGAUGAACCACUGGUUUGAUGGGGUGCUGCAACAGAGGAUUGAGCAUCA
B5: chr11:119660697:119660698:+_ENSMUSG00000025583_ENSMUST00000147781|mus_mus|motif|central (ssRNA)
RNA: GGGAGUUCUACAGUCCGACGAUCGCUUACUGGGGUGCAGUUAUAUGACCUCAUGAUUCUUUCUGCCAAUAAAAAAUUUCGGAACAAACUUGCCACGAGCAGGUCCUGUCGGAAAAGCUUUUGGAAGAGAUCCCGAGGGAGCACCAACAGAGGAUUGAGCAUCA
B6: chr11:118894041:118894042:+_ENSG00000196655_ENST00000359005|hu_hu|motif|central (ssRNA)
RNA: GGGAGUUCUACAGUCCGACGAUCAGGUUCAGCCUAUGACCCAGGUCCAAAAGUUCCAGCCUUCUCUGCCACCUCCAGAGCGGGCUUCAGGUUCUGGUCAAAGAGCUCACACCUGAUAGGCAUUUCUGUCAGUGUCUGGUAGCACAACAGAGGAUUGAGCAUCA
B7: chr1:196632501:196632502:+_ENSMUSG00000026640_ENSMUST00000027952|mus_mus|motif|central (ssRNA)
RNA: GGGAGUUCUACAGUCCGACGAUCGACCCGGGACCGGAGGCUGUCUGGGCUGCCUGUGUACCUGAAGGAAGAGUCAUAUCUGCGGAUGGAUGUCCGAGAGAUGCUGGCAGAGGCAGGGAUGUUGUAGGAGGAGGUCUGCUUAGGCAACAGAGGAUUGAGCAUCA
B8: chr9:95013113:95013114:-_ENSG00000196305_ENST00000443024|hu_hu|hu_hu_hu_mus_False|1_1 (ssRNA)
RNA: GGGAGUUCUACAGUCCGACGAUCCUCAGUCAGAAAGGGCGUGUAAGGGGCCAUCAGUCUGCACAGAGAAAGCAGGACACUGAACAGUGUCUCCAGAGCCAUGACACAGUCUUCCACCCCACUCUCACCCUUUAACCUUCUGCGCAACAGAGGAUUGAGCAUCA
B9: 35767628_35771549_484_CDS_ENSMUSG00000020590_ENSMUST00000048519|mouse|control|control (ssRNA)
RNA: GGGAGUUCUACAGUCCGACGAUCGGAAAACUGGAUAACUUGCUGGAGAGGCUCAUCAAUUAUAUUGGCACCCGUCAAUCUUCUGUCAAUCUUUAUAGUCCUGGCUUCGCGUUUCAUUUCUUCUAAGCACUUAGGAACCCCAGACAACAGAGGAUUGAGCAUCA
B10: chr2:181367561:181367562:+_ENSMUSG00000002455_ENSMUST00000002529|mus_mus|motif|central (ssRNA)
RNA: GGGAGUUCUACAGUCCGACGAUCAACACGCUUCUUUGCUCGAAUGUCUGUUUCUAGCUCUGCUGCUCUGAUGUAAAUCCGGACAGACUGCGGGAGAUGACGGACAGCUUGUGCCACCACAGCCUUGGCUGUGUCCCCAGGCUGCAACAGAGGAUUGAGCAUCA
B11: chr6:114281168:114281169:-_ENSG00000196591_ENST00000368632|hu_hu|hu_hu_hu_mus_True|98_98 (ssRNA)
RNA: GGGAGUUCUACAGUCCGACGAUCUUCCAUUUUUCGGUAUAAGCCAUAAUUUAGCAGCAAGUUAUGAGUCAUCCGGAUUCUAUGAGGCUUCAUGGGAUGACCCUGGCCAUAAUAAUAAUUGCCAAUAUCACCAUCAUAGUAGUACAACAGAGGAUUGAGCAUCA
B12: chr1:60041781:60041782:+_ENSMUSG00000041040_ENSMUST00000036540|mus_hu|mus_mus_mus_hu_False|68_78 (ssRNA)
RNA: GGGAGUUCUACAGUCCGACGAUCAAGUUUACAAUAGUAAAGUAAAUGCAGUAGUGGAAUGGCAAGUUUACUUUAGUUUCACAAAAGAAAAUCUUUAUAACCCAGUCCUAGUCUUGGACAUAGUGAAAGCUAUAAAUUCUGACUCAACAGAGGAUUGAGCAUCA
B13: 19566710_19568278_1164_3pUTR_ENSG00000072210_ENST00000579855|human|control|control (ssRNA)
RNA: GGGAGUUCUACAGUCCGACGAUCAAUCAUCCGUUUGAUGAGCUUAUGGUUAUGCGAAAAUACAUAAAGAGCCAGAGGCUUUUCACGUUCAUUUAUGAAAUUUAUGGCCUCAUCUACAUUUUUCACAGGCACUAUUGGAAGAAUCAACAGAGGAUUGAGCAUCA
B14: chr9:121621712:121621713:+_ENSMUSG00000032526_ENSMUST00000035113|mus_hu|FALSE|FALSE (ssRNA)
RNA: GGGAGUUCUACAGUCCGACGAUCUUUUGAAGUGCUGGUUGGACUGGCAUCUGCAAUGGUAGCCAAAUAAAUGAGAUUUCUAUGUAACACAUGCUGGUACUGCACGCACUCGUUCCCGCGGCCCUUGUUCUGAUACUCCACAAUCAACAGAGGAUUGAGCAUCA
B15: chr5:135513207:135513208:+_ENSG00000113658_ENST00000545279|hu_hu|motif|central (ssRNA)
RNA: GGGAGUUCUACAGUCCGACGAUCAAUGUAAGCUCACAGUAUCUGUACUCAAAGUUUCUCUAAAAUUAAAACAAGUCCACGGACAAUAUAAUUGAAAAGAAUACUUCUGCAUUAUGAAACAGAAGAUAUGGGGUUCAGAGGGGACAACAGAGGAUUGAGCAUCA
B16: chr5:33459820:33459821:+_ENSG00000113407_ENST00000502553|hu_hu|motif|central (ssRNA)
RNA: GGGAGUUCUACAGUCCGACGAUCCCAGAGUCGGCUGUUGAAGAUGUUUGGGGUGACUACCUCCUGGAAUCCUCUUUUCCGGUAUUCGCUCCUAAUGAAUUCAAUAAGUGCAUUAUAAAUGUAGGCUCCUUUUGGCAGAAAAAACAACAGAGGAUUGAGCAUCA
B17: chr1:151206805:151206806:+_ENSG00000143398_ENST00000349792|hu_mus|FALSE|FALSE (ssRNA)
RNA: GGGAGUUCUACAGUCCGACGAUCCUUCUCCUUCUCCUUCUUGCUGGCCCUGCGCUUGUACGUGGAGCCCUUGAGGUCGAACUUAAGGUGCAUUUUGACGACACGGGGCAGCACAUUGUUCAUGACCACCACGCGGAUGUUCUUCAACAGAGGAUUGAGCAUCA
B18: 184695523_184702090_819_CDS_ENSG00000116406_ENST00000318130|human|control|control (ssRNA)
RNA: GGGAGUUCUACAGUCCGACGAUCUCUUGGAUAAGGAAGGCCACUGGUAGUGUUGAAAGCCGGUAAAAGUUUGUAACCUAACUGCUUUGCCAUUUGGAGAAGUUCAUCAUUGUACCACUGCAUAUAUUCACCUUUUUCUUUCAGCAACAGAGGAUUGAGCAUCA
B19: chr22:32879901:32879902:+_ENSG00000100225_ENST00000397426|hu_mus|hu_hu_hu_mus_False|28_78 (ssRNA)
RNA: GGGAGUUCUACAGUCCGACGAUCCUCUUCCAUACUCAUGGCAUCCUGAAUUGACUCAGCUUCAAAAUUUUGACUAGGCCCUUCCAUACUGUCAUCAGUCCAGGCAUCAGACUGGGCGGCCUGUCCUUGGGAUGAAUCAGUCCCCAACAGAGGAUUGAGCAUCA
B20: chr4:138847413:138847414:+_ENSMUSG00000028745_ENSMUST00000102508|mus_hu|FALSE|FALSE (ssRNA)
RNA: GGGAGUUCUACAGUCCGACGAUCCCGAGGGCCACCUCUGCUCCCAGAGCUGUCCCCUGUCCCCACGACCCCCAACCCCAAGCAACUCCCAAACACACACGGAAUAAGAUUUCCAGUUUUUCUUCUCUCUUUCACACACCACAGCAACAGAGGAUUGAGCAUCA
B21: chr2:216981417:216981418:+_ENSG00000079246_ENST00000392132|hu_hu|hu_hu_hu_mus_True|38_58 (ssRNA)
RNA: GGGAGUUCUACAGUCCGACGAUCCUGAUACUGGUCCUUGCCAGCAAGGGCAUUAUCAGUGCCAUCUGUGCCAUAGAGGACUAAAGCAAUCUCAUCUUUGUUCUCAGAAAAUACCUGUCGUUGGACAAACAUAGUCAUCACUUUCAACAGAGGAUUGAGCAUCA
B22: 90660486_90660606_1981_3pUTR_ENSG00000112182_ENST00000537989|human|control|control (ssRNA)
RNA: GGGAGUUCUACAGUCCGACGAUCAUGCACCGAGGUGCUCACUUGGUCACAAGCGCUGGAGGAGAAGAUCACGCUCCUCCGGUCCAGCUCUCCCUCCUGUUUACAGAGAGCCUCCAACCCAGGCCCCCUGAGGGGCGACCCCAUCAACAGAGGAUUGAGCAUCA

Target: T1, UNK ZnF1-3 (human, UniProt Q9C0B0 31-174)
T1 sequence: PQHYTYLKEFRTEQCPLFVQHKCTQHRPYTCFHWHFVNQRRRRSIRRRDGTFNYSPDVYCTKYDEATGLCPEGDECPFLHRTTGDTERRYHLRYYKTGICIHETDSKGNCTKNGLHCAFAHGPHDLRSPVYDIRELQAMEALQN
Experiment: nsRBNS (natural sequence RNA bind-n-seq); RBNS binding buffer (assumed for nsRBNS): 25 mM Tris pH 7.5, 150 mM KCl, 3 mM MgCl2, 0.01% Triton X-100, 500 ug/ml BSA, 20 U/ml SUPERase-In, 4 C; UNK is unkempt and MSI1 is Musashi-1; names of the RNAs are library labels; protein concentration not given here; high values mean tight binding

Binder | binding signal
B1 | 1.24 enrichment R
B2 | 1.6 enrichment R
B3 | 0.696 enrichment R
B4 | 1.14 enrichment R
B5 | 1.11 enrichment R
B6 | 0.745 enrichment R
B7 | 1.55 enrichment R
B8 | 0.964 enrichment R
B9 | 1.37 enrichment R
B10 | 0.525 enrichment R
B11 | 0.856 enrichment R
B12 | 0.573 enrichment R
B13 | 0.951 enrichment R
B14 | 1.26 enrichment R
B15 | 1.17 enrichment R
B16 | 0.689 enrichment R
B17 | 0.65 enrichment R
B18 | 0.879 enrichment R
B19 | 1.03 enrichment R
B20 | 1.69 enrichment R
B21 | 0.689 enrichment R
B22 | 0.485 enrichment R

From paper PMC12136788
